The values that follow come from ChEMBL document CHEMBL4888484, “Replenishing the malaria drug discovery pipeline: Screening and hit evaluation of the MMV Hit Generation Library 1 (HGL1) against asexual blood stage Plasmodium falciparum ,using a nano luciferase reporter read-out” (2022).

Hit rate of the full screen: of about 150,000 compounds, about 540 (0.36%) showed an effect of 50% or more. The list shows a part of the results.

This test relates to Plasmodium falciparum. In words: Primary screen in NF54 nanoGlo assay, in single point, at 2uM, 72h; a lower Z score goes with more inhibition. The settings on record: timepoint 72 hour. The test is classed as functional, Erythrocyte.
Consider `CCN(CC)C(=O)c1ccc(Br)cc1F`, for which the “% Inhibition” value was -6% and the Z score was determined as 0.94.
For `CCN(C(=O)COc1cccc(C)c1)[C@H](c1ccc(C)cc1)c1c[nH]c2ccccc12` the same measures were 6% and -0.77.
For `CC(C)NC(=O)CNC(=O)Cc1cc(Cl)ccc1Cl` the same measures were -1% and 0.11.
For `CC1C(C)S(=O)(=O)CCN1C(=O)c1cccc(C(F)(F)F)c1` (centres undefined), in that order: -11% and 1.14.
Regarding `Cc1nc(Nc2ccccn2)sc1C(=O)NC1CCC(C)CC1` (centres undefined), the “% Inhibition” value is -5% and the Z score was 0.75.
As for `O=C(O)c1ccccc1-c1nccc(C2CCCC2)n1`, the “% Inhibition” value is given as -11% and the Z score turned out to be 2.1.
For `CO[C@H]1CCOC[C@@H]1NC(=O)C1Cc2ccccc2C1` the same measures were -8% and 1.58.
For `Cc1noc(C)c1CCC(=O)Nc1nc2ccccc2s1`, in that order: -9% and 1.29.
For `Cc1cnc(CN2CCCC[C@H]2C(=O)NCC(F)F)s1`, in that order: 4% and -0.68.
In the case of `CN(CCO)S(=O)(=O)c1cnc(NCCO)c(C(F)(F)F)c1`, the “% Inhibition” value is recorded as -1% and the Z score is reported as 0.11.
For `CCO[C@H]1CN(C)C[C@@H]1n1cnc2cccc(Cl)c2c1=O` the same measures were 4% and -0.67.
In the case of `CC1CCC(NC(=O)Nc2cccc(-c3nnco3)c2)CC1` (centres undefined), the “% Inhibition” value is listed as -13% and the Z score worked out at 1.21.
Regarding `COc1cccc(OCc2nc(CCN)n(C(C)(C)C)n2)c1`, the “% Inhibition” value was -16% and the Z score turned out to be 1.41.
For the molecule `Cc1cc(C)n(CCN2CCCN(C(=O)c3cc(-c4ccccc4)n[nH]3)CC2)n1`, the “% Inhibition” value is reported as -8% and the Z score turned out to be 1.48.
With `CCc1nn(C)cc1NC(=O)N(C)[C@@H](C)c1ccco1`, the “% Inhibition” value is recorded as -7% and the Z score is listed as 1.1.
For `COC(=O)Nc1cccc(OS(=O)(=O)c2cccnc2)c1` the same measures were -5% and 0.68.
For `COCCN1CCCC(NC(C)c2ccc(OC)c(F)c2)C1` (centres undefined), in that order: -3% and 0.37.
With `O=C(c1ccc(Oc2ccccc2)cc1)[C@H]1CCCN(C(=O)CCc2cccnc2)C1`, the “% Inhibition” value is -7% and the Z score stood at 0.95.
As to `CCc1nc(C)sc1C(=O)NCc1cc2n(n1)CCNC2`, the “% Inhibition” value is on record as -10% and the Z score is 0.95.
For `CCCc1nnc2c(=O)n(CC(=O)Nc3cc(C)ccc3OC)c3ccccc3n12` the same measures were -2% and 0.36.
For the molecule `Cc1ccc(C(=O)NC2CC3CCC2C3)c(C2CCN(C(=O)c3cccc(Br)c3)CC2)n1` (centres undefined), the “% Inhibition” value is on record as -9% and the Z score is listed as 1.28.
Take `CCOc1ccc(NC(=O)CNC(=O)c2cn(-c3ccccc3OC)c(=O)c3ccccc23)cc1`: the “% Inhibition” value is given as -1% and the Z score is reported as 0.09.
For `C=C(C)CNc1ccccc1Br`, in that order: -10% and 1.47.
For `O=C(CCC(F)(F)F)N1CCO[C@@H](CC(c2ccccc2)c2ccccc2)C1`, in that order: -10% and 1.2.
For `O=C(NC[C@H](OCCO)c1cccs1)c1ccc2c(c1)OCO2`, in that order: -14% and 1.57.
Turning to `NC(=O)c1ccc(CN2CCNC(=O)[C@@H]2c2cccc(F)c2)cc1`, the “% Inhibition” value is -11% and the Z score amounted to 1.82.
Consider `CCOC(=O)CNC(=O)NCCn1nnc2cc(S(=O)(=O)N(C)C)ccc21`, for which the “% Inhibition” value is recorded as -2% and the Z score is listed as 0.26.
Take `Cn1c(C(=O)N2CCn3nc(Cc4ccccc4)cc3C2)cc2ccccc21`: the “% Inhibition” value is listed as -10% and the Z score came to 1.3.
For `O=C(N[C@H]1CCc2nccn2C1)c1cc2c(s1)CCCC2`, the “% Inhibition” value was -14% and the Z score amounted to 2.98.
As to `COC(=O)CN1CCC(Oc2cncc(Cl)c2)CC1`, the “% Inhibition” value is -1% and the Z score stood at 0.1.
For `CCNC(=O)N1CCN(C(=O)c2ccc(N3CCCC3)nc2)CC1`, the “% Inhibition” value is -17% and the Z score worked out at 3.2.
For `O=C(Nc1cncc(Cl)c1)N[C@@H]1C=CCCC1` the same measures were -12% and 2.31.
Turning to `Fc1ccc(COc2ccc3ccccc3c2CNc2ccc(Br)cc2)cc1`, the “% Inhibition” value is 36% and the Z score is -0.9.
For `COc1ccc(C)c(NC(=O)N2CCN(C(=O)OC(C)(C)C)C[C@@H]2C)c1` the same measures were -7% and 0.79.
Consider `COc1ccc(C(=O)N2C[C@H]3CC[C@@H](C2)N(CC2CC2)C3=O)cc1O`, for which the “% Inhibition” value was -21% and the Z score is 1.96.
For `Cc1ccc(NS(=O)(=O)c2cc3[nH]c4c(c3cc2C)C(=O)CC(C)(C)C4)c(C)c1`, the “% Inhibition” value is recorded as -9% and the Z score was 1.78.
For `COC(=O)CC1(NC(=O)Nc2cc(Cl)ccc2Cl)CCS(=O)(=O)CC1`, in that order: 4% and -0.59.
For the molecule `O=C1Cc2cccc(-c3ccc(C4(O)CCC4)cc3)c2N1`, the “% Inhibition” value is given as -12% and the Z score is listed as 2.46.
For `C[C@]1(c2ccccc2)CCC(=O)N(CCOCCO)C1`, in that order: -5% and 0.89.
For `O=C(O)Cc1csc(NC(=O)C2CC2c2ccc3c(c2)OCCO3)n1` (centres undefined), in that order: -3% and 0.36.
For `Cc1cc(C)n(CC(=O)NCc2cccc(Cl)c2)c1-c1nc(C2CC2)no1`, in that order: -5% and 0.74.
For the molecule `C#CCCC1(CCC(=O)N2CCC[C@H](c3ccc(F)c(F)c3)C2)N=N1`, the “% Inhibition” value is on record as -13% and the Z score is listed as 1.57.

As a reminder, the % Inhibition is the change of the read-out against control, counted positive when it falls.
